From PubChem BioAssay AID686978 (National Center for Advancing Translational Sciences (NCATS), 2013)
Screen size: about 420,000 compounds; about 64,000 (15%) were called active. Calls come from the whole dose curve; as a rule, active = well fitted inhibition curve with a large enough effect; inconclusive = small, poorly fitted or top-dose-only effect; inactive = flat fitted curve, though single readings scatter. The inconclusive results got no clear call from the source. No potency is given beside an inconclusive call; the fits are too rough.

Assay: qHTS for Inhibitors of human tyrosyl-DNA phosphodiesterase 1 (TDP1): qHTS in cells in absence of CPT; note: nearly all actives have a fitted effect of over 55% in size
Details: DT40 Tdp1-/- hTDP1 cells, no CPT, ATP luminescence, 48 h; series mostly up to 46.2 µM
Description: Human tyrosyl-DNA phosphodiesterase 1 (TDP1) is a novel repair gene, and we propose to use it as a new target for anticancer drug development. TDP1 is not an essential protein, but under treatment with topoisomerase I poison (camptothecin: CPT), TDP1 works as a critical factor for cell survival. To directly identify novel TDP1 inhibitors active in a cellular environment, we have knocked-out the Tdp1 gene in chicken DT40 cells (Tdp1-/-) and generated a complemented counterpart cells that contains a stable transfection of the human TDP1 gene (Tdp1-/-;hTDP1 cells). For the primary screen, Tdp1-/-;hTDP1 cells will be exposed to small molecules in the presence or absence of CPT, and their growth kinetics will be evaluated after 48 hours by measuring ATP activity. […] The hit compounds will then be evaluated in the presence or absence of CPT using Tdp1-/- cells. […] In tertiary assays, biochemical gel-based assays will be used to assess whether the hit compounds specifically target TDP1.
To this end, we have screened this cell line against the MLSMR in two primary screens. In one screen we add CPT and in the other we screen in the absence of CPT; this AID represents the screen where CPT was absent.
NIH Chemical Genomics Center [NCGC]
NIH Molecular Libraries Probe Centers Network [MLPCN]
Assay Submitter (PI): Yves Pommier, NCI
DT40-hTDP1 cells without 20 nM Camptothecin (add 20 microL of DMSO in 1 L of cell culture medium) were dispensed at 400 cells/5microL/well in tissue culture treated 1536-well white wall/solid bottom assay plates (Greiner Bio-One North America, NC, U.S.A.) using a Multidrop Combi 8 channel dispenser (Thermo Fisher, Waltham, MA, USA). 23 nL compounds and controls were transferred using the pin tool (Kalypsys, San Diego, CA, USA) to the assay plates. The assay plates were then incubated at 37 masculineC for a minimum 48 hr. Three microL of Cell Titer Glo solution was added to the plates and incubated at RT in dark for 30 min. Luminescence was read using ViewLux (Perkin Elmer) with 1 sec exposure slow speed, high gain and 2x binning.
Potency is the fitted concentration of half-maximal effect; tags give direction and shape of the fitted curve.

SMILES | Potency
O=C(NN1C(=O)/C(=C/c2ccc(O)cc2)SC1=S)c1ccccc1O | inconclusive [inhibitor, single point]
COc1cccc(C2C3=C(N=c4s/c(=C\c5ccc(OCC(=O)O)cc5)c(=O)n42)c2ccccc2CC3)c1 (stereo not drawn) | inconclusive [inhibitor, single point]
CCOC(=O)c1sc(N2C(=O)C(O)=C(C(=O)c3ccc(C)o3)C2c2cccc([N+](=O)[O-])c2)nc1C (stereo not drawn) | inconclusive [inhibitor, single point]
